# Measured values from patent publication US20260174788A1 (priority 2023, published 2026).
# Test system: HR NMIBC (CIS with or without papillary disease) unresponsive to prior intravesical BCG therapy
# Assay type: in vivo, human
# [1] = cutoff 4 Apr. 2023, efficacy set
# [2] = cutoff 4 Apr. 2023, efficacy set 22 TAR-200, 21 CET
# [3] = cutoff 20 Feb. 2023, evaluable set
# [4] = cutoff 20 Feb. 2023, evaluable set 19 TAR-200, 18 CET
substance,measurement,setting,value
"cetrelimab: IgG4/K antagonistic anti-PD-1 antibody, heavy chain of SEQ ID NO: 9 and light chain of SEQ ID NO: 10",95% CI of CR rate by central review,[1],"(18.1%, 61.6%)"
same,Non-complete response (Non-CR) rate,[1],61.9%
same,Non-evaluable rate,[1],4.8%
same,"Non-evaluable, patients",[1],1
same,"Complete response (CR) by central review, patients",[2],8
same,"Non-complete response (Non-CR), patients",[2],13
same,Overall CR rate by central review,[2],38.1%
same,Responders who had an event,cutoff 20 Feb. 2023,1
same,Median duration of response,"cutoff 20 Feb. 2023, approximately 9 months median follow up",not estimable
same,95% CI of CR rate by central review,[3],"(13.3%, 59.0%)"
same,Non-complete response (Non-CR) rate,[3],(66.7%)
same,Overall CR rate based on investigator,[3],"44.4% (21.5%, 69.2%)"
same,"Complete response (CR), best overall response by central review, participants",[4],6
same,"Non-complete response (Non-CR), participants",[4],12
same,Overall CR rate by central review,[4],"33.3% (13.3%, 59.0%)"
same,Overall CR rate by central review,"cutoff 20 Feb. 2023, evaluable set 19 TAR-200, 18 CET, listed as CET",(33.3%)

# Read-outs that look alike come from different tables or passages of the source.
